Read counts are not given, so values of variants with three or more changes are uncertain.
B1: LINE1-full (parent)
chain: UACGUAGGUGGUUUUCCCCUGAUAGUGCUAAGGGGGCCUGGAAGUUUGGACUGGGCAGAGCUCAACACAGCGUGGCAAAGUGGCUGUGGCUAGACUGCCUCUCUGGAUUCCUCGUCACUCAGCAGGGCAUCUCUGAGAGAAAUGCC

Variants of: B1
Test: self-cleavage, relative activity (ratio to wild type); higher = more cleavage; in vitro, sequencing; the parent is a self-cleaving ribozyme

Variant | self-cleavage
U15A A42G A59G | 0.21
U14G U15C U130A | 1.72
U14C U73C C101A | 0.97
U15C A24U A69G U115C | 0
U15C A50G A117U | 0.84
U15C A50U U73C U134C | 1.34
U15C A42G G83C U100C | 0.57
U14G U46A U112A A129G | 1.16
U14C U29A U39C A138G | 1.72
U14C U23C A30U A65G | 0.21
U14C U26G A64U A69U | 0.1
U14C U45A A67G | 0.6
U14C U73A G122U | 1.03
U14G A22U A57U A59U U85C A124U | 0.23
U15C A31G U102C U112C | 1.97
U15C A24U A79U A129G | 2.5
U15C A24G A64G U73A U102A | 1.12
U15A A30G U47C A64U A79G | 0.92
U15A G32A U119A A124G | 0.68
U14C U29A U46C A124G | 1.12
U14C U39C U100C G114C A140G | 1.57
U14C U39C A57U U130C U132A | 0
U14G A22U U39C | 0.84
U14G C17A A77U | 0.38

Variant | self-cleavage
U14C G127U A142G | 1.41
U14C G60A A79G A121G A140G | 0.07
U14C U45C A77U | 0
U14C U46C U104C | 2.63
U14C G36U U130C C146U | 1.15
U15C A24G A121G | 0
U15C A50U A65C U132A | 0.08
U14C G33C U47C A69U | 0
U15A U39C A42G | 0.48
U14C U112C U132C | 0.6
U15C A42G U45A | 0.88
U15C A22G U112C | 1.02
U14G A30U A31U U46A A65G U143C | 0.1
U14C U26C U108C | 0
U14C U47A A142G | 1.16
U14C G21U U46C A79U U87A | 0.06
U15A A67U A138G | 0.23
U14C U39A A121G | 2.41
U14C U46C U62C | 0.13
U14C U52C A59G U62C U132C | 0
U15A U52A A69G U104C | 0.4
U15A U87A U104A U132C | 0.11
U15A U85C A141G | 0
U14C U15C A77U A79G C101A | 1.15

Variant | self-cleavage
U15A U39A U52A A67U C113U | 0.11
U14C G48A A67G A141G | 0
U14C U26C G27U | 0.89
U15C A22G A79G A107U U108C U109A C111A | 1.84
U14C U29C A78G | 0.87
U15A A57U A59C A64G A67U | 0
U14C U81A A94G U112C | 0.42
U15C A43G G48A U108C | 1.88
U14C U20C G72A A94G A136U | 0.33
U14C U20A G54A U96A | 0.08
U15A U26C U46C C66U | 0
U15C A67G U81C A140G | 0
U15A A79C G88A | 0.06
U14G U15A G36A U52A A59U | 0.18
U15A A57C U102A | 0.13
U15A A78G U85A A121G | 0.11
U14C U39C A136G | 1.67
U14C U39A A59G | 0.09
U14C G93A C101A | 0.06
U15C A24G A64U A78G | 0.59
U15C A59U U115C | 0.99
U15A C28G A92C G135A | 0.52
U14C U29C C37A U39A U109C A138G | 1.19
U15A U62C U81C | 0

Variant | self-cleavage
U14C U46C U100C | 0.98
U14C U104C G126A | 2.15
U15A A69G A79G A121G G122A A142G | 0.26
U14C G106A A136G | 1.37
U15A U46A A50G A129G | 1.04
U15C A43G A64U A65G | 0.11
U15A G35A G58A U112A | 0.02
U14C U100C A117G | 0.84
U14C U23C U39C G40U U47A | 0.74
U14C U46C A117C | 1.38
U14C U132A G139A | 2.7
U15C A57U A59G U102A U143C | 0.08
U14C U23C A64U A69U A117C A141G | 0.24
U14C G32A G34A A79G C101U | 0.76
U14C U47C A50U U81C | 0.68
U14C U29C A78G G86A | 0.25
U15A A30G U87C U96A U112C | 0
U14C U39A U46C A78G | 1.36
U14C G49U U96G | 0.07
U15A G54A U100A | 0.18
U14C U29C C51U C98U U134C | 0.47
U14C U39A G97A | 0.22
U14C U45C U100G | 1.41
U14C U45C U119C A124G | 0.48

Variant | self-cleavage
U14C C123U U132A | 1.22
U14C G74A A124G U143A | 0.44
U14C U87A U100C C111U A138G | 0.11
U14C U62C C101U | 0.06
U14C U15A A57U | 0
U14C G32A U47C A69G U143A | 0
U15C A22G U52A U62C U109A A117G | 0.33
U14C U26C U46C U47C | 0
U14C G114A C131U | 0.85
U14C U23C U132A | 0.92
U15C A67G A69U A129G U143C | 0
U14C G36A A92G U102C | 0.16
U14C U20G C56U A57U A124G A136G | 0.26
U14C U46A A92G A94G | 0.11
U14C G32A A69U A77G A121G | 0.24
U14C U29C A59U | 0.43
U14C U15A G105A A138G A141G | 0.71
U14C U20C U39A U130C | 0.42
U14C U115C U130C | 2.3
U14C U87A A136U A142G | 0.02
U14C U26C U29C U39A | 0.89
U14C U81A U85A | 0.17
U14C G34A U81C U108C | 1.74
U14C U15C U85C | 0

Variant | self-cleavage
U14C U23C A31G A78G U143A | 1.47
U15A A22G U112A A124U | 1.58
U14C U29C A43G G88A U134C A140G | 0.04
U15A G32A G135A | 2.21
U15A A50G U112C | 0.77
U15A U20G C56U U134C | 0.41
U14C G54A G83A G126U | 0.08
U15A A78G C120G A121G | 1.02
U14C G25A A64G | 0.37
U15A G60A A79G U115C U132G A141G | 0.23
U14C U85C U112A A124G | 0.27
U15A U62A A121G | 0.24
U14C U39A G82A C120A | 1.3
U14C U45C A94U | 0.15
U15A A79G U91C U108C | 1.23
U14G A67U U104C | 0.28
U14C U112C U115C | 1.58
U14C G36A U96A | 0.05
U15C A64U A129G A140G | 0.76
U15C A65G C98U A117U | 0
U14C U115C U134C | 0.97
U14C U20C A94U | 0.49
U14G U62C U102A A121U | 0
U15A U26A A65C U81A | 0.04

Variant | self-cleavage
U15A U62C A121C | 0
U15A A94G U115A A141G | 0.38
U15C A31G U45C | 1.6
U15A A24G U73C A78U U109C G126A A142G | 2.58
U14C U46C A65U U87A | 0.05
U15A U62A A64U U85C | 0.17
U14C U62G U130C | 0
U14C U46C G125U | 0
U14C G27A U46C A140G | 0.8
U15A U26A U112C A140G | 0.33
U14C U20C U52G | 1.02
U15C A50U C113U A129G | 1.64
U14C U108C A138G | 2.67
U14C G27A A64C C84U U85C | 0
U15A A22G U52C U62A A67C | 0.1
U14C G89A A94G A124G | 0.13
U14C U47A U109A | 0.9
U15A A94U A141G | 0.26
U15A U39G U87A | 0.09
U14C U23C A136G | 1.51
U14C G25A A67U A124C A129G U130C | 0
U14C U45C U87A A117G | 0.14
U14C U62A C146U | 0.14

Source: the RNAGym collection of RNA variant scans (doi:10.7554/elife.90254)
